Experiment in all cases: glycan array binding signal (z-score within array); higher = stronger binding
Conditions in all cases: glycan notation: IUPAC condensed, linker removed

The target of test [1] is GlcNAc(b1-3)Gal(b1-4)GlcNAc(b1-2)Man(a1-3)[GlcNAc(b1-3)Gal(b1-4)GlcNAc(b1-2)Man(a1-6)]Man(b1-4)GlcNAc(b1-4)GlcNAc. The method in brief: (§1)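 Glycan array data were curated from 3228 arrays in the Consortium for Functional Glycomics database and kept only where the protein sequence was available. Glycan names were converted to IUPAC-condensed notation, and columns mapping to the same glycan were averaged. The binding signal is a within-array Z-score, averaged across arrays of the same protein sequence at different concentrations or buffers and across linkers. Negative Z-scores can be read as non-binding.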

In test [2] the target is GlcNAc(b1-3)Gal(b1-4)GlcNAc(b1-2)Man(a1-3)[GlcNAc(b1-3)Gal(b1-4)GlcNAc(b1-2)Man(a1-6)]Man(b1-4)GlcNAc(b1-4)[Fuc(a1-6)]GlcNAc. In a few lines:
as §1

In test [3] the target is GlcNAc(b1-3)Gal(b1-4)GlcNAc(b1-2)[GlcNAc(b1-3)Gal(b1-4)GlcNAc(b1-6)]Man(a1-6)[GlcNAc(b1-3)Gal(b1-4)GlcNAc(b1-2)Man(a1-3)]Man(b1-4)GlcNAc(b1-4)GlcNAc. The method in brief:
as §1

The target in test [4] is GlcNAc(b1-3)Gal(b1-4)GlcNAc(b1-3)Gal(b1-4)GlcNAc. In a few lines: as §1
Test [5] deals with GlcNAc(b1-3)Gal(b1-4)GlcNAc(b1-3)Gal(b1-4)GlcNAc(b1-2)Man(a1-3)[GlcNAc(b1-3)Gal(b1-4)GlcNAc(b1-3)Gal(b1-4)GlcNAc(b1-2)Man(a1-6)]Man(b1-4)GlcNAc(b1-4)GlcNAc. The method in brief: as §1
The target in test [6] is GlcNAc(b1-3)Gal(b1-4)GlcNAc(b1-3)Gal(b1-4)GlcNAc(b1-2)Man(a1-3)[GlcNAc(b1-3)Gal(b1-4)GlcNAc(b1-3)Gal(b1-4)GlcNAc(b1-2)Man(a1-6)]Man(b1-4)GlcNAc(b1-4)[Fuc(a1-6)]GlcNAc. In a few lines:
as §1

Test [7] has as its target GlcNAc(b1-3)Gal(b1-4)GlcNAc(b1-3)Gal(b1-4)GlcNAc(b1-2)[GlcNAc(b1-3)Gal(b1-4)GlcNAc(b1-3)Gal(b1-4)GlcNAc(b1-6)]Man(a1-6)[GlcNAc(b1-3)Gal(b1-4)GlcNAc(b1-3)Gal(b1-4)GlcNAc(b1-2)Man(a1-3)]Man(b1-4)GlcNAc(b1-4)[Fuc(a1-6)]GlcNAc. In a few lines:
as §1

For test [8], the target named is GlcNAc(b1-3)Gal(b1-4)GlcNAc(b1-3)Gal(b1-4)GlcNAc(b1-3)Gal(b1-4)GlcNAc(b1-2)Man(a1-3)[GlcNAc(b1-3)Gal(b1-4)GlcNAc(b1-3)Gal(b1-4)GlcNAc(b1-3)Gal(b1-4)GlcNAc(b1-2)Man(a1-6)]Man(b1-4)GlcNAc(b1-4)GlcNAc. The method in brief:
as §1

For test [9], the target named is GlcNAc(b1-3)Gal(b1-4)GlcNAc(b1-3)Gal(b1-4)GlcNAc(b1-3)Gal(b1-4)GlcNAc(b1-2)Man(a1-3)[GlcNAc(b1-3)Gal(b1-4)GlcNAc(b1-3)Gal(b1-4)GlcNAc(b1-3)Gal(b1-4)GlcNAc(b1-2)Man(a1-6)]Man(b1-4)GlcNAc(b1-4)[Fuc(a1-6)]GlcNAc. In a few lines:
as §1

Test [10] has as its target GlcNAc(b1-3)Gal(b1-4)GlcNAc(b1-3)Gal(b1-4)GlcNAc(b1-3)Gal(b1-4)GlcNAc(b1-2)[GlcNAc(b1-3)Gal(b1-4)GlcNAc(b1-3)Gal(b1-4)GlcNAc(b1-3)Gal(b1-4)GlcNAc(b1-6)]Man(a1-6)[GlcNAc(b1-3)Gal(b1-4)GlcNAc(b1-3)Gal(b1-4)GlcNAc(b1-3)Gal(b1-4)GlcNAc(b1-2)Man(a1-3)]Man(b1-4)GlcNAc(b1-4)[Fuc(a1-6)]GlcNAc. In a few lines: as §1
Test [11] deals with GlcNAc(b1-3)Gal(b1-4)GlcNAc(b1-3)Gal(b1-4)GlcNAc(b1-3)Gal(b1-4)GlcNAc(b1-3)Gal(b1-4)GlcNAc(b1-2)Man(a1-3)[GlcNAc(b1-3)Gal(b1-4)GlcNAc(b1-3)Gal(b1-4)GlcNAc(b1-3)Gal(b1-4)GlcNAc(b1-3)Gal(b1-4)GlcNAc(b1-2)Man(a1-6)]Man(b1-4)GlcNAc(b1-4)GlcNAc. In a few lines:
as §1

Test [12] has as its target GlcNAc(b1-3)Gal(b1-4)GlcNAc(b1-3)Gal(b1-4)GlcNAc(b1-3)Gal(b1-4)GlcNAc(b1-3)Gal(b1-4)GlcNAc(b1-2)Man(a1-3)[GlcNAc(b1-3)Gal(b1-4)GlcNAc(b1-3)Gal(b1-4)GlcNAc(b1-3)Gal(b1-4)GlcNAc(b1-3)Gal(b1-4)GlcNAc(b1-2)Man(a1-6)]Man(b1-4)GlcNAc(b1-4)[Fuc(a1-6)]GlcNAc. The method in brief: as §1
In test [13] the target is GlcNAc(b1-3)Gal(b1-4)GlcNAc(b1-3)Gal(b1-4)GlcNAc(b1-3)Gal(b1-4)GlcNAc(b1-3)Gal(b1-4)GlcNAc(b1-2)[GlcNAc(b1-3)Gal(b1-4)GlcNAc(b1-3)Gal(b1-4)GlcNAc(b1-3)Gal(b1-4)GlcNAc(b1-3)Gal(b1-4)GlcNAc(b1-6)]Man(a1-6)[GlcNAc(b1-3)Gal(b1-4)GlcNAc(b1-3)Gal(b1-4)GlcNAc(b1-3)Gal(b1-4)GlcNAc(b1-3)Gal(b1-4)GlcNAc(b1-2)Man(a1-3)]Man(b1-4)GlcNAc(b1-4)[Fuc(a1-6)]GlcNAc. In a few lines:
as §1

In test [14] the target is GlcNAc(b1-3)Gal(b1-4)GlcNAc(b1-3)Gal(b1-4)GlcNAc(b1-3)GalNAc. In a few lines:
as §1

Test [15] deals with GlcNAc(b1-3)Gal(b1-4)GlcNAc(b1-3)GalNAc. The method in brief:
as §1

Test [16] addresses GlcNAc(b1-3)Gal(b1-4)GlcNAc(b1-3)[GlcNAc(b1-3)Gal(b1-4)GlcNAc(b1-3)]GalNAc. In a few lines:
as §1

In test [17] the target is GlcNAc(b1-3)Gal(b1-4)GlcNAc(b1-6)[Gal(b1-3)]GalNAc. The method in brief: as §1
The target of test [18] is GlcNAc(b1-3)Gal(b1-4)GlcNAc(b1-6)[GlcNAc(b1-3)Gal(b1-3)]GalNAc. In a few lines: as §1
Test [19] addresses GlcNAc(b1-3)Gal(b1-4)GlcNAc(b1-6)[GlcNAc(b1-3)]Gal(b1-4)GlcNAc. In a few lines: as §1

The list shows a part of the results.

B1: Gal-9-hFc (Mus musculus), O08573-2 (protein)
chain: MALFSAQSPYINPIIPFTGPIQGGLQEGLQVTLQGTTKSFAQRFVVNFQNSFNGNDIAFHFNPRFEEGGYVVCNTKQNGQWGPEERKMQMPFQKGMPFELCFLVQRSEFKVMVNKKFFVQYQHRVPYHLVDTIAVSGCLKLSFITFQTQNFRPAHQAPMAQTTIHMVHSTPGQMFSTPGIPPVVYPTPAYTIPFYTPIPNGLYPSKSIMISGNVLPDATRFHINLRCGGDIAFHLNPRFNENAVVRNTQINNSWGQEERSLLGRMPFSRGQSFSVWIICEGHCFKVAVNGQHMCEYYHRLKNLQDINTLEVAGDIQLTHVQT
As for B1, the “glycan array binding signal (z-score)” value in test [1] was -0.435; in [2], -0.203; in test [3], -0.084; in test [4], -0.363; in test [5] it was 0.436; in test [6], -0.174. For the same molecule, the “glycan array binding signal (z-score)” value was 0.174 in test [7]; -0.186 in test [8]; 1.04 in [9]; 0.397 in test [10]; -0.207 in test [11]; -0.392 in test [12]. The “glycan array binding signal (z-score)” value was -0.19 in test [13]; 0.003 in [14]; -0.339 in test [15]; -0.486 in test [16]; -0.325 in test [17]; -0.149 in [18]. For the same molecule, in test [19], the “glycan array binding signal (z-score)” value is -0.207.
